Data on 18 molecules can be found in the supplement of paper PMC10369915.

The list shows a part of the results. No stated cut-off is given here; in the data, active = 3.2 or more and inactive = the rest. Most of these values are background signal.
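Further: displayed peptides selected on beads carrying the immobilized SH2 domain, with library peptides lacking any tyrosine serving as negative controls.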

In one assay the target is SHP2 C-SH2 domain E139D. Put plainly: enrichment score (SH2-bound / input frequency) (ratio); bacterial display of known human phosphotyrosine sites (pTyr-Var adds point mutants) read by sequencing; higher = stronger binding; tyrosines were phosphorylated by kinases first. As to conditions: peptide library: pTyr-Var.
MGGSLYFSYPD [HIKESHI_Y55_V54L]: the enrichment score was inactive: 1.15.
With TLQNMYGCDVG [HLA-B_Y123_S121N], the enrichment score is inactive: 0.695.
On the same count and under the same terms, the result for EGLRRYLENGK [HLA-A_Y195_W191G] reads inactive: 0.562; that for VMAVAYRLAEQ [HK1_Y461_T457M], inactive: 1.71; that for QEGPEYWDRET [HLA-A_Y83_Q86R], inactive: 0.4.
In the case of FDGKDYIALNE [HLA-A_Y147_YF], the enrichment score is inactive: 0.837.
Same read-out and setting: then QLHREYCLSPR [HJURP_Y445], with inactive: 0.997; and TLQTMYGCDVG [HLA-B_Y123_S121T], with inactive: 0.851.
On the same count and under the same terms, then FMKEPYIQSRF [HIPK4_Y175_V171M_YF], with inactive: 0.86; and EWLRRHLENGK [HLA-A_Y195_Y195H], with inactive: 0.895.
As to YDGKDYIALKE [HLA-A_Y147_N151K], the enrichment score is inactive: 0.793.
On the same count and under the same terms, then VLNKGYRMVVN [HINT1_Y94_G89V], with inactive: 0.682.
Still for that read-out and setting: then VTAVAYRLAEQ [HK1_Y461], with inactive: 0.89; and RFLRGYQQDAY [HLA-A_Y137_R138Q], with inactive: 0.67.
Same read-out and setting: the result for FSEVRYVKEPF [HIPK4_Y170_YF] reads inactive: 0.784.
As to TVQIMYGCDVG [HLA-A_Y123_I119V], the enrichment score is inactive: 0.783.
As for TLQIMYGCDVG [HLA-A_Y123_I119L], the enrichment score was inactive: 0.986.
Still for that read-out and setting: the result for RGYRQDAYDGK [HLA-A_Y140] reads inactive: 0.266.

The next assay has as its target SHP2 C-SH2 domain wild-type. The description is as above. Conditions: peptide library: pTyr-Var.
MGGSLYFSYPD [HIKESHI_Y55_V54L]: the enrichment score is inactive: 1.21.
Take TLQNMYGCDVG [HLA-B_Y123_S121N]: the enrichment score is inactive: 0.836.
Regarding EGLRRYLENGK [HLA-A_Y195_W191G], the enrichment score is inactive: 0.439.
Same read-out and setting: the result for VMAVAYRLAEQ [HK1_Y461_T457M] reads inactive: 1.67; that for QEGPEYWDRET [HLA-A_Y83_Q86R], inactive: 0.505; that for FDGKDYIALNE [HLA-A_Y147_YF], inactive: 0.813.
In the case of QLHREYCLSPR [HJURP_Y445], the enrichment score was inactive: 0.876.
Turning to TLQTMYGCDVG [HLA-B_Y123_S121T], the enrichment score is inactive: 0.619.
FMKEPYIQSRF [HIPK4_Y175_V171M_YF]: the enrichment score was inactive: 0.501.
The same measure, in the same setting: then EWLRRHLENGK [HLA-A_Y195_Y195H], with inactive: 0.824; and YDGKDYIALKE [HLA-A_Y147_N151K], with inactive: 0.761.
Turning to VLNKGYRMVVN [HINT1_Y94_G89V], the enrichment score was inactive: 0.477.
VTAVAYRLAEQ [HK1_Y461]: the enrichment score is inactive: 0.925.
Same read-out and setting: the result for RFLRGYQQDAY [HLA-A_Y137_R138Q] reads inactive: 0.49; that for FSEVRYVKEPF [HIPK4_Y170_YF], inactive: 0.721.
On the same count and under the same terms, the result for TVQIMYGCDVG [HLA-A_Y123_I119V] reads inactive: 1.05.
Consider TLQIMYGCDVG [HLA-A_Y123_I119L], for which the enrichment score was inactive: 1.34.
On the same count and under the same terms, then RGYRQDAYDGK [HLA-A_Y140], with inactive: 0.349.

A further assay concerns the target SHP2 N-SH2 domain L43F. The description is as above. As to conditions: peptide library: pTyr-Var.
For the molecule MGGSLYFSYPD [HIKESHI_Y55_V54L], the enrichment score is inactive: 1.34.
Same read-out and setting: then TLQNMYGCDVG [HLA-B_Y123_S121N], with inactive: 0.91.
The same measure, in the same setting: then EGLRRYLENGK [HLA-A_Y195_W191G], with inactive: 0.609; and VMAVAYRLAEQ [HK1_Y461_T457M], with inactive: 2.2; and QEGPEYWDRET [HLA-A_Y83_Q86R], with inactive: 0.489.
The same measure, in the same setting: the result for FDGKDYIALNE [HLA-A_Y147_YF] reads inactive: 0.851.
On to QLHREYCLSPR [HJURP_Y445], for which the enrichment score was inactive: 1.24.
As to TLQTMYGCDVG [HLA-B_Y123_S121T], the enrichment score was inactive: 0.748.
Still for that read-out and setting: then FMKEPYIQSRF [HIPK4_Y175_V171M_YF], with inactive: 0.811; and EWLRRHLENGK [HLA-A_Y195_Y195H], with inactive: 0.842.
Still for that read-out and setting: then YDGKDYIALKE [HLA-A_Y147_N151K], with inactive: 0.852.
On to VLNKGYRMVVN [HINT1_Y94_G89V], for which the enrichment score is inactive: 0.772.
Same read-out and setting: the result for VTAVAYRLAEQ [HK1_Y461] reads inactive: 2.9; that for RFLRGYQQDAY [HLA-A_Y137_R138Q], inactive: 0.522.
The same measure, in the same setting: then FSEVRYVKEPF [HIPK4_Y170_YF], with inactive: 1.03; and TVQIMYGCDVG [HLA-A_Y123_I119V], with inactive: 0.76.
TLQIMYGCDVG [HLA-A_Y123_I119L]: the enrichment score was inactive: 0.886.
On the same count and under the same terms, the result for RGYRQDAYDGK [HLA-A_Y140] reads inactive: 0.455.

For a further assay, the target named is SHP2 N-SH2 domain T42A. The description is as above. As to conditions: peptide library: pTyr-Var.
Turning to MGGSLYFSYPD [HIKESHI_Y55_V54L], the enrichment score is inactive: 1.09.
Take TLQNMYGCDVG [HLA-B_Y123_S121N]: the enrichment score is inactive: 0.566.
On the same count and under the same terms, then EGLRRYLENGK [HLA-A_Y195_W191G], with inactive: 0.418.
On the same count and under the same terms, then VMAVAYRLAEQ [HK1_Y461_T457M], with inactive: 1.17; and QEGPEYWDRET [HLA-A_Y83_Q86R], with inactive: 0.498.
Same read-out and setting: then FDGKDYIALNE [HLA-A_Y147_YF], with inactive: 0.6; and QLHREYCLSPR [HJURP_Y445], with inactive: 0.919; and TLQTMYGCDVG [HLA-B_Y123_S121T], with inactive: 0.757.
Take FMKEPYIQSRF [HIPK4_Y175_V171M_YF]: the enrichment score is inactive: 0.971.
Same read-out and setting: the result for EWLRRHLENGK [HLA-A_Y195_Y195H] reads inactive: 0.83; that for YDGKDYIALKE [HLA-A_Y147_N151K], inactive: 0.634.
Same read-out and setting: the result for VLNKGYRMVVN [HINT1_Y94_G89V] reads inactive: 0.663.
Take VTAVAYRLAEQ [HK1_Y461]: the enrichment score was inactive: 0.961.
On to RFLRGYQQDAY [HLA-A_Y137_R138Q], for which the enrichment score was inactive: 0.524.
Still for that read-out and setting: then FSEVRYVKEPF [HIPK4_Y170_YF], with inactive: 1.27; and TVQIMYGCDVG [HLA-A_Y123_I119V], with inactive: 0.791.
Consider TLQIMYGCDVG [HLA-A_Y123_I119L], for which the enrichment score is inactive: 0.876.
The same measure, in the same setting: then RGYRQDAYDGK [HLA-A_Y140], with inactive: 0.392.

For a further assay, the target named is SHP2 N-SH2 domain T52S. Described as above. Conditions: peptide library: pTyr-Var.
As to MGGSLYFSYPD [HIKESHI_Y55_V54L], the enrichment score was inactive: 1.02.
On to TLQNMYGCDVG [HLA-B_Y123_S121N], for which the enrichment score is inactive: 0.71.
Same read-out and setting: then EGLRRYLENGK [HLA-A_Y195_W191G], with inactive: 0.61; and VMAVAYRLAEQ [HK1_Y461_T457M], with inactive: 2.34; and QEGPEYWDRET [HLA-A_Y83_Q86R], with inactive: 0.62.
On the same count and under the same terms, the result for FDGKDYIALNE [HLA-A_Y147_YF] reads inactive: 0.844; that for QLHREYCLSPR [HJURP_Y445], inactive: 0.984; that for TLQTMYGCDVG [HLA-B_Y123_S121T], inactive: 0.564.
Take FMKEPYIQSRF [HIPK4_Y175_V171M_YF]: the enrichment score was inactive: 0.895.
For EWLRRHLENGK [HLA-A_Y195_Y195H], the enrichment score was inactive: 0.841.
For the molecule YDGKDYIALKE [HLA-A_Y147_N151K], the enrichment score was inactive: 0.761.
The same measure, in the same setting: the result for VLNKGYRMVVN [HINT1_Y94_G89V] reads inactive: 0.683; that for VTAVAYRLAEQ [HK1_Y461], active: 3.39.
With RFLRGYQQDAY [HLA-A_Y137_R138Q], the enrichment score is inactive: 0.406.
Same read-out and setting: then FSEVRYVKEPF [HIPK4_Y170_YF], with inactive: 0.75; and TVQIMYGCDVG [HLA-A_Y123_I119V], with inactive: 0.921; and TLQIMYGCDVG [HLA-A_Y123_I119L], with inactive: 1.09.
On the same count and under the same terms, then RGYRQDAYDGK [HLA-A_Y140], with inactive: 0.397.

Another assay addresses SHP2 N-SH2 domain wild-type. The assay is described as above. Conditions: peptide library: pTyr-Var.
On to MGGSLYFSYPD [HIKESHI_Y55_V54L], for which the enrichment score was inactive: 1.18.
For TLQNMYGCDVG [HLA-B_Y123_S121N], the enrichment score is inactive: 0.642.
As to EGLRRYLENGK [HLA-A_Y195_W191G], the enrichment score is inactive: 0.523.
Same read-out and setting: then VMAVAYRLAEQ [HK1_Y461_T457M], with inactive: 1.53; and QEGPEYWDRET [HLA-A_Y83_Q86R], with inactive: 0.505.
In the case of FDGKDYIALNE [HLA-A_Y147_YF], the enrichment score is inactive: 1.12.
For the molecule QLHREYCLSPR [HJURP_Y445], the enrichment score is inactive: 1.1.
The same measure, in the same setting: then TLQTMYGCDVG [HLA-B_Y123_S121T], with inactive: 0.735.
Same read-out and setting: then FMKEPYIQSRF [HIPK4_Y175_V171M_YF], with inactive: 0.63.
The same measure, in the same setting: then EWLRRHLENGK [HLA-A_Y195_Y195H], with inactive: 0.856; and YDGKDYIALKE [HLA-A_Y147_N151K], with inactive: 0.871.
On to VLNKGYRMVVN [HINT1_Y94_G89V], for which the enrichment score is inactive: 0.762.
For the molecule VTAVAYRLAEQ [HK1_Y461], the enrichment score is inactive: 1.11.
On to RFLRGYQQDAY [HLA-A_Y137_R138Q], for which the enrichment score was inactive: 0.661.
Still for that read-out and setting: then FSEVRYVKEPF [HIPK4_Y170_YF], with inactive: 0.772.
The same measure, in the same setting: the result for TVQIMYGCDVG [HLA-A_Y123_I119V] reads inactive: 1.08.
With TLQIMYGCDVG [HLA-A_Y123_I119L], the enrichment score is inactive: 1.54.
Same read-out and setting: the result for RGYRQDAYDGK [HLA-A_Y140] reads inactive: 0.374.
